# Source: the BET-seq Pho4 binding data (Le et al. 2018)
# This is one part of the list. The energies were worked out here from pooled read counts, against the library average; single values are noisy.
# Molecular target: T1, Pho4 (S. cerevisiae) (UniProt P07270)
# T1 sequence: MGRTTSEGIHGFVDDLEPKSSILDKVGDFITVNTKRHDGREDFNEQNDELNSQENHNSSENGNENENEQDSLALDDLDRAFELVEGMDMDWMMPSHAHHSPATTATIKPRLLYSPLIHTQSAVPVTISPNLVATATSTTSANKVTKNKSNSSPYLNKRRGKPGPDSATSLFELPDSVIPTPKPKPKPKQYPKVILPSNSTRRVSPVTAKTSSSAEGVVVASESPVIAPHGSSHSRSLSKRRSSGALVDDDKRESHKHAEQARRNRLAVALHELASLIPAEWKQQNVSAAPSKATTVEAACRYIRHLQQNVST
# Assay: relative binding free energy (BET-seq); higher = weaker binding
# Details: reference: library average
row,Sequence,relative binding free energy [kcal/mol]
1,TCGTTCACGTGTGGGT,0.27
2,GTGGTCACGTGATTCG,0.26
3,TTTGGCACGTGATCGG,-0.07
4,GCGTGCACGTGCGTAG,-0.03
5,TATTGCACGTGTATCG,0.04
6,GGTGTCACGTGGGAGG,0.12
7,TTAGGCACGTGTAGGC,-0.11
8,GAGCGCACGTGGGGAT,-0.08
9,ATACGCACGTGTGGCG,-0.01
10,AACGGCACGTGTGTGG,0.05
11,AAGTCCACGTGGTATG,0.04
12,TTTCGCACGTGGTTCT,-0.12
13,ATTTACACGTGTGTTA,0.11
14,CTCGTCACGTGCAGGG,0.13
15,TATTTCACGTGAGGGA,0.26
16,GGCGGCACGTGCGTGT,-0.17
17,GTGGTCACGTGTTCAT,0.21
18,GGTGACACGTGGTAAC,0.07
19,GTTACCACGTGGGTAG,-0.07
20,GATGGCACGTGGCGGG,-0.1
21,TTGGACACGTGTGGAA,0.2
22,GTGAGCACGTGTGGAA,-0.15
23,AGGTCCACGTGGTAAG,0.06
24,TGGTTCACGTGATATC,0.42
25,ACTTGCACGTGCGTGG,-0.11
26,ATAGGCACGTGTATTA,-0.04

row,Sequence,relative binding free energy [kcal/mol]
1,GCGTGCACGTGGTGCG,-0.14
2,TTGGGCACGTGCATGG,-0.15
3,CTATGCACGTGTGGGA,0.01
4,GTGTTCACGTGCGTGC,-0.05
5,CGTGACACGTGGTTGC,-0.07
6,GTTGTCACGTGAGACA,0.25
7,TTAATCACGTGTTGTA,0
8,CTATTCACGTGGGCTT,0.13
9,TTGGGCACGTGACGCA,0.01
10,TTGGCCACGTGGGAAG,-0.14
11,GTTGTCACGTGATCGT,0.24
12,ATAGACACGTGTCGGG,-0.03
13,TGTTCCACGTGGTTGT,0.02
14,GTTTGCACGTGTATTC,0.17
15,TTAGGCACGTGAGAAT,0.15
16,AAGCTCACGTGTTTTG,0.18
17,AGATGCACGTGCGTGT,-0.07
18,CGGGCCACGTGTAGTG,-0.11
19,CGTCGCACGTGCGGGT,-0.13
20,AATAGCACGTGAGGTG,0.12
21,CGTAGCACGTGGGTAT,-0.29
22,GTCGGCACGTGAGGTG,0.24
23,CGTGTCACGTGGTCTT,0.03
24,CGGGGCACGTGATTCT,0.02
25,GCTGGCACGTGGGGCA,-0.3
26,AGGGGCACGTGTCGTC,-0.03

row,Sequence,relative binding free energy [kcal/mol]
1,TCAGTCACGTGGATTG,0.05
2,AGGAGCACGTGGATGT,-0.19
3,AGTATCACGTGATATA,0.19
4,AATGTCACGTGAAGGG,0.27
5,GTGGTCACGTGTCTGA,0.1
6,TATTGCACGTGATTTG,0.09
7,TTGCGCACGTGCATGT,-0.09
8,TGTAACACGTGTGGCG,0.08
9,GTGTACACGTGTGATA,0.17
10,GGTATCACGTGGGGCA,0.01
11,TTAGCCACGTGTTGGT,-0.12
12,GATGGCACGTGTAAGG,0.07
13,CGGTTCACGTGTTTTA,0.35
14,AGGGCCACGTGGCCGG,-0.21
15,TTGCGCACGTGGGTTA,-0.11
16,TCGGACACGTGGTGGT,-0.03
17,AATGTCACGTGGTCGG,-0.02
18,TGTGGCACGTGATATT,0.09
19,ACGGTCACGTGTCGAT,0.4
20,TGTATCACGTGGACGT,0.15
21,CGTTTCACGTGTAAAT,0.33
22,TAGTGCACGTGGAAAA,0.1
23,CATTGCACGTGGTGGA,0.04
24,TGAATCACGTGTTCGG,0.13
25,GTTTTCACGTGGAAAA,0.33
26,TTTTACACGTGTTTTG,0.11

row,Sequence,relative binding free energy [kcal/mol]
1,TAATTCACGTGTGTAT,0.16
2,ATGATCACGTGCGAGT,0.06
3,TTTTACACGTGGAATT,0.28
4,AGGTGCACGTGTGTTT,0.01
5,TTGATCACGTGGTTCT,0.11
6,TCGGGCACGTGTATGA,-0.1
7,GGTAACACGTGTATGA,0.03
8,GTTGGCACGTGCGTCG,-0.21
9,ATTTGCACGTGTTAGT,0.1
10,ATGTGCACGTGATGTA,0.02
11,GGGCTCACGTGAGGTC,0.53
12,AGGGGCACGTGGCCGG,-0.19
13,AGAGACACGTGTGGTA,0.09
14,TAAGGCACGTGTAAGG,-0.11
15,TTTAGCACGTGGCGAT,-0.11
16,CGGGACACGTGGATTG,-0.06
17,TCGATCACGTGTGGGA,0.19
18,ATAGGCACGTGTAGTT,0.02
19,TGTAACACGTGGCTTG,0.02
20,GTTGGCACGTGGGGTC,-0.16
21,ATGAGCACGTGTGAAT,0.06
22,GGTGACACGTGAGGTA,0.15
23,TTTTCCACGTGTTACT,0.1
24,GGTGTCACGTGCATAG,0.07
25,TGGGGCACGTGCGTGT,-0.16
26,AGCGGCACGTGTTGGT,-0.04

row,Sequence,relative binding free energy [kcal/mol]
1,GGCTGCACGTGAATTG,0.31
2,ATATTCACGTGGTCTT,0.04
3,TTTAGCACGTGTAGAA,-0.13
4,TTATGCACGTGTTCGT,-0.01
5,GTATCCACGTGGGTAT,0.06
6,GTTCGCACGTGCTGTG,0.04
7,TGGTGCACGTGAATGT,0.22
8,GCAAGCACGTGGGTGA,-0.18
9,GTTTTCACGTGAGGTT,0.46
10,TTGACCACGTGATTGG,0.19
11,CTGGTCACGTGGTTGA,0.23
12,GCGGGCACGTGTGATA,0.06
13,TTTTTCACGTGTGTTA,0.34
14,GGTTACACGTGTAGTA,0.21
15,GTTAGCACGTGTGTGC,0.04
16,GTGCGCACGTGAGGGT,0.18
17,AGTGACACGTGCTGTG,-0.08
18,AGATGCACGTGATTAT,0.01
19,GTTGCCACGTGTAATG,0.11
20,CGCCGCACGTGGGTGG,-0.18
21,TCTGTCACGTGTTGAT,-0.01
22,TGGTACACGTGGCATT,0
23,AGGGCCACGTGAATGG,0.11
24,GTTTACACGTGTTTGG,0.17
25,GGTATCACGTGCGGAT,0.16
26,TGACGCACGTGAGAGT,0.14

row,Sequence,relative binding free energy [kcal/mol]
1,GGGCACACGTGTAAGG,0.22
2,GCGTCCACGTGTGAGG,0.26
3,AAGTGCACGTGGTGGC,-0.16
4,CTTGGCACGTGAGGGC,0.08
5,GGTTTCACGTGTGGAC,0.36
6,TTATACACGTGGGATC,0.05
7,GGTTGCACGTGACTGG,0.05
8,AAGGGCACGTGGCTTA,-0.22
9,TCTCTCACGTGGTGTG,0.16
10,TGAGGCACGTGTCGTT,-0.02
11,ATGGGCACGTGCGGTA,-0.27
12,ATGTTCACGTGTGATT,0.3
13,AATTGCACGTGGTTCA,-0.02
14,TTGAGCACGTGAAAGT,0.2
15,GAGGTCACGTGCTGTA,0.07
16,TTGCGCACGTGTGAGT,-0.12
17,TGTGTCACGTGCGTTC,-0.07
18,AGTAGCACGTGAGTGT,0.13
19,GGTCGCACGTGACTGG,0.09
20,ATTATCACGTGTACGT,0.15
21,TTGCGCACGTGTTTGG,-0.1
22,GGTGCCACGTGGTGCT,-0.17
23,GATGGCACGTGCAGTT,-0.04
24,TATTGCACGTGTTCTT,0.05
25,GTGATCACGTGGAGGC,0.1
26,TAGCGCACGTGGGTCT,-0.3

row,Sequence,relative binding free energy [kcal/mol]
1,TGTATCACGTGTTCAT,0.14
2,GGTGTCACGTGCTTGG,0.01
3,GGGGTCACGTGGCGGT,0.17
4,TGTCGCACGTGCTGGG,-0.17
5,TTGTGCACGTGAACGA,0.21
6,TGGTCCACGTGGTGAT,-0.02
7,TTTAACACGTGTTGTC,-0.09
8,CTAGGCACGTGTTGTA,-0.07
9,ATCTGCACGTGGTCTG,-0.05
10,TCATGCACGTGGTGTG,-0.14
11,TTTTGCACGTGTTTAA,0.07
12,GGACACACGTGGGAGG,-0.17
13,TTATGCACGTGTGATC,0.1
14,ATAATCACGTGGGGTT,0
15,CTTACCACGTGGGAGT,-0.02
16,TTCTGCACGTGAGAGG,0.21
17,ATGTGCACGTGTTTGG,-0.06
18,GGCGGCACGTGTGCTT,-0.06
19,ATGTCCACGTGTGGTA,0.02
20,TTAGTCACGTGTGCAA,0.05
21,GTTGACACGTGGAGTG,0.07
22,GTTGCCACGTGGTCTA,0.05
23,CGTTACACGTGTTGGA,0.14
24,AATGGCACGTGATTGA,-0.02
25,AGGTCCACGTGGGGGA,-0.11
26,AAATTCACGTGTATAT,0.19

row,Sequence,relative binding free energy [kcal/mol]
1,GTGCGCACGTGGTATA,-0.15
2,AGGCTCACGTGTGTTG,0.16
3,TTATACACGTGTGTGA,0.09
4,AGTGTCACGTGGGTGT,-0.13
5,AAGGTCACGTGTTACG,0.06
6,GTGTACACGTGTGGTT,0.12
7,CGTTTCACGTGAGCGT,0.36
8,AAATGCACGTGTCGTT,-0.05
9,GAGCTCACGTGGAGTG,0.18
10,ATGAGCACGTGATTTG,0.11
11,ATTATCACGTGTTACG,0.03
12,GTTTTCACGTGTGACG,0.34
13,TGAATCACGTGTTCTG,0.21
14,TCAATCACGTGGGTTT,0.1
15,GATAGCACGTGTGGTC,0
16,GTAGTCACGTGTCGAT,0.21
17,ATAGGCACGTGTAATG,0.09
18,ATAGTCACGTGAGTAT,0.24
19,AGGTGCACGTGGATGG,-0.07
20,ATGTTCACGTGAGCTG,0.3
21,TCGAGCACGTGTCGGG,-0.12
22,GTGATCACGTGTTCTG,0.08
23,TTTGTCACGTGCAGTT,0.09
24,GGCTGCACGTGGGGAG,-0.05
25,GCGGGCACGTGTGGGC,0.13
26,CGGGTCACGTGAGTGA,0.22

row,Sequence,relative binding free energy [kcal/mol]
1,TTATCCACGTGATGAG,0.25
2,TTTGGCACGTGCTTTC,-0.21
3,TGGTGCACGTGATAGC,-0.08
4,GGCATCACGTGGTATG,0.12
5,GGGTGCACGTGCTTGT,0
6,TTCGGCACGTGTCAGG,-0.14
7,TTAGTCACGTGCAAGT,0.23
8,AGCGTCACGTGAAGTT,0.29
9,AGTTTCACGTGTCGTA,0.41
10,ATGTGCACGTGCAGTA,-0.05
11,GGGCGCACGTGGTTTT,-0.02
12,CATTTCACGTGAGTTA,0.35
13,AGGGACACGTGAGATT,0.25
14,TTTCGCACGTGGTGTT,-0.18
15,GTTGTCACGTGGAGCA,0.16
16,TGATTCACGTGCGTGA,0.23
17,AGATGCACGTGGATGT,-0.02
18,GGAGGCACGTGGCAGC,-0.1
19,ACATTCACGTGAGTGG,0.24
20,AGCAGCACGTGATGGT,0.11
21,TTGTTCACGTGCTGAC,0.44
22,GGTCACACGTGCGGGC,0.29
